Values joined by “and” are separate entries in the source; they are usually repeats but may differ in a detail not shown here. Identical values can stand only once. Hit rate of the full screen: of about 410,000 compounds, about 6,400 (1.6%) were called active. Inconclusive means that the source gave no clear call. Such entries were picked first, then a sample of the others. The call rests on the fitted dose curve; in most records, active means well fitted inhibition curve with a large enough effect; inconclusive means small, poorly fitted or top-dose-only effect; inactive means no such curve, though single readings can be large or run the other way. Where the call is inconclusive, the potency comes from a doubtful curve fit.
These molecules were tested against Glucagon-like peptide 1 receptor (Homo sapiens) (UniProt P43220) (assay: qHTS of GLP-1 Receptor Inverse Agonists (Inhibition Mode)). Conditions: HEK293 GLP-1R CRE-luciferase, luminescence, 24 h, GLP-1R form is constitutively active; series mostly up to 38.3 µM.
Sequence of UniProt P43220 (P43220 whole entry, looked up): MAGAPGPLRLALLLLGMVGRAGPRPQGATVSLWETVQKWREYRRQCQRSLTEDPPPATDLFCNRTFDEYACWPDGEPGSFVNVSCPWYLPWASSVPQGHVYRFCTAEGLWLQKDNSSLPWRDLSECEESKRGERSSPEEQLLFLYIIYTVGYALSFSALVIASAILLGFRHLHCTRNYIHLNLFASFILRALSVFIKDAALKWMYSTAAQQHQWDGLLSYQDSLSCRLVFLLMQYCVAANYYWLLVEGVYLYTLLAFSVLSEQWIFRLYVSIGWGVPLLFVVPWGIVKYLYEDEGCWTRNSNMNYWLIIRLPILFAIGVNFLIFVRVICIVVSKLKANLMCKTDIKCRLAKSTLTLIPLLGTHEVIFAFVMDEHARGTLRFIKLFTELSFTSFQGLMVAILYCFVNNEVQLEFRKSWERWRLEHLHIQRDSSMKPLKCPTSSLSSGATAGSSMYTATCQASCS
In short: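 Inverse agonists were sought by their lowering of basal cAMP reporter luciferase output in HEK293 cells stably carrying constitutively active human GLP-1R, after 24 h compound treatment.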
Further: nearly all actives have a fitted effect of over 55% in size.
Potency means the concentration at half of the fitted maximal effect; tags describe the fitted curve by direction and shape.

With CC(C)N1C(=O)C2ON(c3ccccc3)C(c3cccs3)C2C1=O (configuration not stated) as the molecule, how does the Potency read?
Its Potency is inconclusive: 8.91 µM [inhibitor, partial curve, poor fit].

With O=C(c1ccccc1OCc1ccccc1Br)N1CCN(c2ncccn2)CC1 as the molecule, how does the Potency read?
Its Potency is inconclusive: 0.501 µM [inhibitor, full curve, poor fit].

How did the Potency turn out when CC(C)(C)OC(=O)N1CCC[C@H]1c1nnc(SCc2cccc(Cl)c2)o1 was run?
The Potency was inconclusive: 11.2 µM [inhibitor, single point].

How did the Potency turn out when O=C(CNC(=S)N(Cc1ccccc1)Cc1ccccc1F)NCc1ccc(Cl)cc1 was run?
The Potency was inconclusive: 11.2 µM [inhibitor, partial curve, poor fit].

For O=C(NCc1ccc2c(c1)CCO2)Nc1cccc(C(F)(F)F)c1, which Potency is on record?
The Potency was inconclusive: 8.91 µM [inhibitor, partial curve, poor fit].

Which Potency does the source give for CN(C)CCN(C(=O)c1ccc2c(c1)CCCC2)c1nc2cc3c(cc2s1)OCCO3 here?
Its Potency is inconclusive: 11.2 µM [inhibitor, single point].

With CC(C)C[C@H]1CN(CCCC[C@@H]2CNC(=O)C(=O)N2CC2CCCCC2)C(=O)C(=O)N1Cc1ccccc1 as the molecule, how does the Potency read?
The Potency was “inactive”.

With Cc1cc(C)c2nc(-c3ccccn3)cc(C(=O)N3CCCC3)c2c1 as the molecule, how does the Potency read?
Its Potency is inconclusive: 12.6 µM [inhibitor, partial curve, poor fit].

With OC(c1ccc(Cl)c(F)c1)c1ncc(-c2ccc(Oc3ccccc3)cc2)[nH]1 (configuration not stated) as the molecule, how does the Potency read?
The Potency was inconclusive: 10 µM [inhibitor, partial curve, poor fit].

With c1ccc(-c2cc(-c3nnco3)c3ccccc3n2)nc1 as the molecule, how does the Potency read?
Its Potency is “inactive”.

For O=C1CC(c2cccc([N+](=O)[O-])c2)c2cc3c(cc2N1)CCC3 (configuration not stated), which Potency is on record?
Its Potency is inconclusive: 17.8 µM [inhibitor, partial curve, poor fit].

With COc1ccc(S(=O)(=O)NCc2ccc(C(=O)NCCCN3CC(C)CC(C)C3)cc2)cc1 (configuration not stated) as the molecule, how does the Potency read?
Its Potency is inconclusive: 28.2 µM [inhibitor, single point].

With O=C(NCCc1ccccc1)c1nc(-c2ccc(Cl)cc2)n2c1CCCCC2 as the molecule, how does the Potency read?
Its Potency is inconclusive: 8.91 µM [inhibitor, partial curve, poor fit].

COc1ccc(NC(=S)N(CCC(C)C)C(C)c2ccncc2)cc1 (configuration not stated) was tested. Which Potency did it give?
The Potency was inconclusive: 31.6 µM [inhibitor, single point].

CCC(=O)N1CCc2cc(Br)cc(S(=O)(=O)NCCCN(C)Cc3ccccc3)c21 was tested. Which Potency did it give?
Its Potency is inconclusive: 7.94 µM [inhibitor, partial curve].

Which Potency does the source give for Cc1ccc2oc(C(=O)Nc3cccc(Cl)c3)cc(=O)c2c1 here?
Its Potency is “inactive”.

How did the Potency turn out when CCc1ccc(CN2CCCC(C(=O)Nc3ccccc3-c3ccc(OC)cc3)C2)o1 (configuration not stated) was run?
The Potency was inconclusive: 8.91 µM [inhibitor, partial curve, poor fit].

CCc1ccccc1NC(=S)NCC1CCN(c2ccc(OC)cc2)C1 (configuration not stated) was tested. Which Potency did it give?
Its Potency is inconclusive: 28.2 µM [inhibitor, single point].

With CSc1ccccc1-n1nnnc1SCc1ccccc1 as the molecule, how does the Potency read?
The Potency was inconclusive: 28.2 µM [inhibitor, single point].

Which Potency does the source give for COc1ccc(-c2nnc(SC(C(=O)c3c[nH]c4ccccc34)c3ccccc3)n2N)cc1OC (configuration not stated) here?
The Potency was inconclusive: 17.8 µM [inhibitor, single point].

Which Potency does the source give for COc1ccccc1C(=O)Nc1ccccc1OCc1cc(=O)n2ccccc2n1 here?
Its Potency is “inactive”.

For COc1ccc(CNC(=O)C(c2ccc(O)cc2)N(Cc2ccco2)C(=O)c2snc(C(N)=O)c2N)cc1 (configuration not stated), which Potency is on record?
Its Potency is inconclusive: 1 µM [inhibitor, full curve, poor fit].

For CCC(C(=O)OCC(=O)Nc1ccc(OC)cc1OC)c1ccccc1 (configuration not stated), which Potency is on record?
The Potency was inconclusive: 28.2 µM [inhibitor, single point].

Cc1ccc(CCNC(=O)CS(=O)Cc2nc(-c3ccccc3Cl)oc2C)cc1 (configuration not stated) was tested. Which Potency did it give?
The Potency was inconclusive: 10 µM [inhibitor, partial curve, poor fit].

How did the Potency turn out when O=C(NCCCNc1ccc(C(F)(F)F)cc1[N+](=O)[O-])c1ccc(Cl)cc1 was run?
The Potency was inconclusive: 31.6 µM [inhibitor, single point].

With COC(=O)c1c(CSc2ccc(C)c(C)c2)noc1C(=O)NCc1ccc(OC)cc1 as the molecule, how does the Potency read?
The Potency was inconclusive: 11.2 µM [inhibitor, partial curve, poor fit].

With Cc1ccc(Cl)cc1NC(=O)COC(=O)C12CC3CC(CC(C3)C1)C2 as the molecule, how does the Potency read?
Its Potency is inconclusive: 28.2 µM [inhibitor, single point] and inconclusive: 7.94 µM [inhibitor, partial curve, poor fit].

With Cc1ccc(NC(=O)c2ccc(Cl)c(S(=O)(=O)Nc3c(C)n(C)n(-c4ccccc4)c3=O)c2)cc1Cl as the molecule, how does the Potency read?
The Potency was inconclusive: 10 µM [inhibitor, single point].

Which Potency does the source give for Cc1cc(=O)n(Cc2ccccc2)c(O)c1C#N here?
The Potency was “inactive”.

How did the Potency turn out when Cc1ccc(OCCNC(=O)c2cccc(S(=O)(=O)N3CCN(Cc4ccccc4)CC3)c2)cc1 was run?
Its Potency is inconclusive: 22.4 µM [inhibitor, partial curve, poor fit].

How did the Potency turn out when Cc1c(C(=O)N2CCN(Cc3ccc4c(c3)OCO4)CC2)sc2ncnc(N3CCN(c4ccccc4F)CC3)c12 was run?
Its Potency is inconclusive: 3.16 µM [inhibitor, full curve, poor fit].

COc1ccccc1Nc1sc(C(=O)c2ccc(C)cc2C)c(N)c1S(=O)(=O)c1ccccc1 was tested. Which Potency did it give?
The Potency was inconclusive: 1.26 µM [inhibitor, partial curve, poor fit].

With CCOC(=O)C1=CC[C@@H](c2ccccc2)N(S(=O)(=O)c2ccc(C)cc2)[C@H]1c1ccc(CC)cc1 as the molecule, how does the Potency read?
Its Potency is inconclusive: 31.6 µM [inhibitor, single point].

CC(=O)Nc1ccc(-c2csc(NC(=O)Nc3ccccc3)n2)cc1 was tested. Which Potency did it give?
Its Potency is inconclusive: 12.6 µM [inhibitor, partial curve, poor fit].

Which Potency does the source give for O=C1CCC[C@@H]2Cc3[nH]c4c(Cl)ccc(Cl)c4c3[C@@H]3CCN1[C@H]23 here?
The Potency was inconclusive: 10 µM [inhibitor, partial curve, poor fit].

With CSc1ccccc1NC(=O)C1(C)CCN1C(=O)CCC1CCCC1 (configuration not stated) as the molecule, how does the Potency read?
The Potency was inconclusive: 10 µM [inhibitor, partial curve, poor fit].

CCOC(=O)C1C(=O)CC(C)(O)C(C(=O)OCC)C1c1cccc(OC(F)(F)C(F)F)c1 (configuration not stated) was tested. Which Potency did it give?
The Potency was inconclusive: 7.94 µM [inhibitor, partial curve, poor fit].

With CCc1cccc(CC)c1NC(=O)CN1CCN(S(=O)(=O)c2ccccc2)CC1 as the molecule, how does the Potency read?
The Potency was inconclusive: 15.8 µM [inhibitor, single point].

How did the Potency turn out when C=CCC1(C#N)C(SC)=NC2=C(C(=O)CC(C)(C)C2)C1c1ccc(Br)cc1 (configuration not stated) was run?
The Potency was inconclusive: 20 µM [inhibitor, single point].

For Cc1cc(C(=O)C(C)Sc2cccc[n+]2[O-])c(C)n1-c1ccc(Cl)cc1 (configuration not stated), which Potency is on record?
The Potency was inconclusive: 15.8 µM [inhibitor, partial curve, poor fit].

Which Potency does the source give for COc1ccc(C(C(=O)NCc2ccccc2)n2c(=O)c(-c3cc4ccccc4[nH]3)nc3ccccc32)cc1 (configuration not stated) here?
The Potency was inconclusive: 10 µM [inhibitor, partial curve, poor fit].

How did the Potency turn out when COC(=O)[C@]12CCCCC=C1N(Cc1ccc3c(c1)OCO3)C(=O)[C@H](CC(=O)N1CCCCC1)C2 was run?
Its Potency is inconclusive: 10 µM [inhibitor, partial curve, poor fit].

Which Potency does the source give for CCOC(=O)c1c(NC(=O)C2CC2)sc(C)c1CC here?
Its Potency is inconclusive: 28.2 µM [inhibitor, single point].

For O=C(COC(=O)c1ccccc1Cc1ccccc1)Nc1ccc(SC(F)F)cc1, which Potency is on record?
The Potency was inconclusive: 5.62 µM [inhibitor, partial curve, poor fit].

With O=C(Nc1ccc(NC(=O)c2cccs2)c(Cl)c1)c1cccs1 as the molecule, how does the Potency read?
Its Potency is inconclusive: 28.2 µM [inhibitor, single point].

Which Potency does the source give for N#C/C(=C/c1ccc(O)c(O)c1)c1nc2ccccc2[nH]1 here?
The Potency was “inactive”.

How did the Potency turn out when Cc1ccsc1CN1CCc2nc(Nc3ccccc3)ncc2C1 was run?
Its Potency is inconclusive: 28.2 µM [inhibitor, single point].

CCOC(=O)C1=C(C)N=c2s/c(=C\c3ccc(OCC(=O)O)cc3)c(=O)n2C1c1ccccc1OC (configuration not stated) was tested. Which Potency did it give?
Its Potency is inconclusive: 31.6 µM [inhibitor, partial curve, poor fit].

With Cc1ccc(SCn2nnc3ccccc3c2=O)c(C)c1 as the molecule, how does the Potency read?
The Potency was inconclusive: 28.2 µM [inhibitor, single point].

For COc1ccc(NC(=O)CCCC2CCCCC2)cc1S(=O)(=O)N1CCCCC1, which Potency is on record?
Its Potency is inconclusive: 28.2 µM [inhibitor, single point].

How did the Potency turn out when COc1cccc(/C=C/C(=O)OCC(=O)c2ccc(S(=O)(=O)N3CCCCC3)cc2)c1OC was run?
The Potency was inconclusive: 12.6 µM [inhibitor, single point].

For CCC(C)(C)NC(=O)c1sccc1Oc1ccc(F)cc1[N+](=O)[O-], which Potency is on record?
The Potency was inconclusive: 10 µM [inhibitor, partial curve, poor fit].

Which Potency does the source give for CCc1ccccc1NS(=O)(=O)Cc1ccccc1 here?
Its Potency is inconclusive: 12.6 µM [inhibitor, single point].

O=C(Cn1ccc2cc(S(=O)(=O)N3CCCCC3)ccc21)NCCc1ccccc1Cl was tested. Which Potency did it give?
Its Potency is inconclusive: 28.2 µM [inhibitor, single point].

With CCOc1ccc(NC(=O)c2ccc3[nH]c(C)c(C)c3c2)cc1 as the molecule, how does the Potency read?
Its Potency is inconclusive: 7.94 µM [inhibitor, partial curve, poor fit].

CCc1ccc(NC(=O)C2CCN(S(=O)(=O)c3ccc4c(c3)N(C(C)=O)CCO4)CC2)cc1 was tested. Which Potency did it give?
The Potency was inconclusive: 10 µM [inhibitor, partial curve].

Cc1ccc(S(=O)(=O)Nc2cccc(-c3cn4cccc(C)c4n3)c2)c(C)c1 was tested. Which Potency did it give?
Its Potency is inconclusive: 28.2 µM [inhibitor, single point].
